Measurements from PMC4336329 (PLoS ONE, 2015).
Among all 310,000 compounds or so, about 14,000 (4.5%) showed an effect of 50% or more. The effect is printed as a negative number. Some of the results follow.
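Also: peak tail current of the secondary pulse compared with the same well before compound.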

What follows are molecules tested against human ether-à-go-go-related gene (hERG) potassium channel (human, UniProt Q12809) (assay: primary screen, population patch clamp on CHO cells stably expressing hERG).
Sequence of human ether-à-go-go-related gene (hERG) potassium channel (Q12809 whole entry, looked up): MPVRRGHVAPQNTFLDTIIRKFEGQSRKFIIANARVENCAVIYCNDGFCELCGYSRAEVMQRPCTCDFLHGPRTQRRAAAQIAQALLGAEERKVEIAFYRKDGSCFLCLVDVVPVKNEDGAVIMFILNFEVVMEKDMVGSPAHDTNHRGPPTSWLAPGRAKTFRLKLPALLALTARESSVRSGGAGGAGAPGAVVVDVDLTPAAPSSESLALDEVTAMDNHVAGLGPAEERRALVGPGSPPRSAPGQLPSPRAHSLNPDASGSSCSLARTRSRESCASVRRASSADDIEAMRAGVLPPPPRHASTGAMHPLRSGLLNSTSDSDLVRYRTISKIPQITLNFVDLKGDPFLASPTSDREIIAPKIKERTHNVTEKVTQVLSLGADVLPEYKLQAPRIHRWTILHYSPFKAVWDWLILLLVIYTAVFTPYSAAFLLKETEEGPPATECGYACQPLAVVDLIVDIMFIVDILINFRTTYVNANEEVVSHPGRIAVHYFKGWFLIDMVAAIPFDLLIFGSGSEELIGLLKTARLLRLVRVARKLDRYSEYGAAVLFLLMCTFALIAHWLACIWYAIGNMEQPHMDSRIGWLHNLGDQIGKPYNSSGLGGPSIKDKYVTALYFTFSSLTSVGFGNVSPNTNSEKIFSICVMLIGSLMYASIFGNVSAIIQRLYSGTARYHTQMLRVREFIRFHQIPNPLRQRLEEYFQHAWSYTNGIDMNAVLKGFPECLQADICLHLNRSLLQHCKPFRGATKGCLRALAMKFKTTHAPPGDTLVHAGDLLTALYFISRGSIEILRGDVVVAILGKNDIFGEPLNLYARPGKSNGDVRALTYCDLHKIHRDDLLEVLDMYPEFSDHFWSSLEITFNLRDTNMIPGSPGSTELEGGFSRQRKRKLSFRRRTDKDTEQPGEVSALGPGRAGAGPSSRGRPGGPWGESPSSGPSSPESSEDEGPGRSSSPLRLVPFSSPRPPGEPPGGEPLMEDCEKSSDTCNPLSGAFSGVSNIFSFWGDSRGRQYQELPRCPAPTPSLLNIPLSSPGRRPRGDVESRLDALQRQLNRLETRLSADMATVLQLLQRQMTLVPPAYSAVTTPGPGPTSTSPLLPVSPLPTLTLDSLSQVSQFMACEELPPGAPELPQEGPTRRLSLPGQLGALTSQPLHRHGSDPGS
For `CC(=O)Nc1ccc(S(=O)(=O)NC(C)c2nc(-c3ccccc3)no2)cc1` (stereo not shown), the “hERG current change (%, negative = inhibition) at 10uM” value was 22.4%. For `COc1ccc(NC(C)=O)cc1CNC(=O)COc1ccccc1C(=O)Nc1cccc(C)c1C`, the “hERG current change (%, negative = inhibition) at 10uM” value was -27.5%. For `N#Cc1c(C#N)c(-c2ccccc2)n(-c2ccc(C(=O)O)cc2)c1N`, the “hERG current change (%, negative = inhibition) at 10uM” value was 9.1%. For `CNC(=S)/N=C/NOCc1c(Cl)cccc1Cl`, the “hERG current change (%, negative = inhibition) at 10uM” value was -19.5%. In the case of `O=C(COc1ccccc1)NCC(=O)N/N=C/c1ccccc1`, the “hERG current change (%, negative = inhibition) at 10uM” value is reported as 12.4%. With `COc1ccc(CN(C(=O)c2cnccn2)C(C(=O)NC(C)(C)C)c2cc(OC)c(OC)c(OC)c2)cc1` (stereo not shown) the “hERG current change (%, negative = inhibition) at 10uM” value was 1.58%. For `Cc1ccc(S(=O)(=O)N2CC(O)C2)cc1`, the “hERG current change (%, negative = inhibition) at 10uM” value was 26.2%. `Cn1c(SCc2nc(-c3ccc(Cl)cc3)no2)nnc1-c1ccccc1` was tested, and the “hERG current change (%, negative = inhibition) at 10uM” value was -22.5%. For `O=C1CC(N2CCN(c3ccc(F)cc3)CC2)C(=O)N1c1ccc(F)cc1` (stereo not shown), the “hERG current change (%, negative = inhibition) at 10uM” value was 1.07%. In the case of `COC(CNC(=O)c1ccc2c(c1)nc(C)n2-c1ccc(F)c(F)c1)OC`, the “hERG current change (%, negative = inhibition) at 10uM” value is reported as -26.8%. With `CCOC(=O)Cc1csc(NS(=O)(=O)c2ccc(NC(C)=O)cc2)n1` the “hERG current change (%, negative = inhibition) at 10uM” value was 25.9%. In the case of `C=CCNC(=S)NNC(=O)c1cccc(Br)c1`, the “hERG current change (%, negative = inhibition) at 10uM” value is reported as 16.6%. With `CN(C)CC[C@@H](c1ccc(Br)cc1)c1ccccn1.O=C(O)/C=C\C(=O)O` the “hERG current change (%, negative = inhibition) at 10uM” value was -30%. In the case of `O=[N+]([O-])c1ccc(SCCc2ccncc2)cc1`, the “hERG current change (%, negative = inhibition) at 10uM” value is reported as -63.7%. `COc1ccc(C)cc1NC(=O)C(OC(=O)CNC(=O)c1ccc(Br)cc1)c1ccccc1` (stereo not shown) was tested, and the “hERG current change (%, negative = inhibition) at 10uM” value was 29.1%. In the case of `CCc1ccc(CNC(=O)CCc2cn(C)c3ccccc23)cc1`, the “hERG current change (%, negative = inhibition) at 10uM” value is reported as -0.115%. With `Cc1ccnc(NC(=O)CNC(=O)c2cccs2)c1` the “hERG current change (%, negative = inhibition) at 10uM” value was 20.7%. In the case of `C#CC1(O)CC(C)N(C)C(C)C1.Cl` (stereo not shown), the “hERG current change (%, negative = inhibition) at 10uM” value is reported as 5.47%. For `Cc1ccc(C)c(NC(=O)c2nnn(Cc3ccccc3C)c2N)c1`, the “hERG current change (%, negative = inhibition) at 10uM” value was 5.37%. `Cc1ccc(-n2c3c(cc(C(=O)NCc4ccco4)c2=O)C(=O)CC(C)(C)C3)cc1` was tested, and the “hERG current change (%, negative = inhibition) at 10uM” value was -6.38%. With `Cc1ccc2c(c1)Oc1ccc(NC(=O)CCl)cc1C(=O)N2` the “hERG current change (%, negative = inhibition) at 10uM” value was 3.51%. `NS(=O)(=O)c1ccc(N=Nc2c(O)c(C(=O)O)cc3ccccc23)cc1` was tested, and the “hERG current change (%, negative = inhibition) at 10uM” value was 17%. In the case of `CC1=C(C(=O)OCc2ccccc2)C(c2ccc(Br)cc2)NC(=O)N1CCCC(=O)O` (stereo not shown), the “hERG current change (%, negative = inhibition) at 10uM” value is reported as 10.3%. With `O=C(Nc1cccc(O)c1)c1ccc2c(c1)C(=O)N(Cc1ccco1)C2=O` the “hERG current change (%, negative = inhibition) at 10uM” value was -5.31%. In the case of `Cc1ccc(S(=O)(=O)N(C)C)cc1NC(=O)C(C)Sc1ccccc1` (stereo not shown), the “hERG current change (%, negative = inhibition) at 10uM” value is reported as -6.74%. `CC(CCc1ccco1)NC(=O)Cn1nc(Cc2ccncc2)c2ccccc2c1=O` (stereo not shown) was tested, and the “hERG current change (%, negative = inhibition) at 10uM” value was -46.6%. For `Cc1ccc(NC(=O)[C@H](Cc2ccccc2)NC(=O)C2CCNCC2)cc1`, the “hERG current change (%, negative = inhibition) at 10uM” value was 5.64%. For `COCC(=O)OCC(=O)N1N=C(c2ccc(Cl)cc2)CC1c1ccco1` (stereo not shown), the “hERG current change (%, negative = inhibition) at 10uM” value was -28.1%. With `N#Cc1nc(Nc2cc(F)cc(F)c2)c2ncn(CC(F)F)c2n1` the “hERG current change (%, negative = inhibition) at 10uM” value was 8.18%. For `CC(=O)N1CCN(S(=O)(=O)c2ccc(F)c(Cl)c2)CC1`, the “hERG current change (%, negative = inhibition) at 10uM” value was -0.621%. `Cc1cc(C(=O)Nc2ccc(F)c(Cl)c2)on1` was tested, and the “hERG current change (%, negative = inhibition) at 10uM” value was 4.42%. With `COc1ccc(Cl)cc1NC(=O)Nn1cnnc1` the “hERG current change (%, negative = inhibition) at 10uM” value was -0.4%. In the case of `COc1cc(/C=C2\C(=O)N(CCC#N)N=C2C)ccc1OCC(=O)Nc1ccccc1`, the “hERG current change (%, negative = inhibition) at 10uM” value is reported as -7.3%. `C=CCOc1ccc(CN(C)CC(=O)N(CC(C)C)c2c(N)n(CC(C)C)c(=O)[nH]c2=O)cc1` was tested, and the “hERG current change (%, negative = inhibition) at 10uM” value was 13%. With `O=C(Nc1ccccc1)N(Cc1ccccc1)CC(O)C(F)(F)F` (stereo not shown) the “hERG current change (%, negative = inhibition) at 10uM” value was 17.6%. In the case of `Cc1noc(C)c1S(=O)(=O)N(CC(=O)NCCc1ccccc1)c1ccc(C(C)C)cc1`, the “hERG current change (%, negative = inhibition) at 10uM” value is reported as 13.3%. `CCOC(=O)C(C)N1N=C(/C=C/c2ccc(OC)cc2)CCC1=O` (stereo not shown) was tested, and the “hERG current change (%, negative = inhibition) at 10uM” value was 1.23%. In the case of `CCCCN(C(=O)C(C)Oc1cccc(Cl)c1)c1c(N)n(CCC)c(=O)[nH]c1=O` (stereo not shown), the “hERG current change (%, negative = inhibition) at 10uM” value is reported as -13%. In the case of `O=C(CSc1nc2ccccc2c(=O)n1-c1cccc(C(F)(F)F)c1)NC1CC1`, the “hERG current change (%, negative = inhibition) at 10uM” value is reported as -18.5%. In the case of `NC(=O)c1ccc(NC(=O)c2ccccc2S(=O)(=O)c2ccccc2[N+](=O)[O-])cc1`, the “hERG current change (%, negative = inhibition) at 10uM” value is reported as -1.49%. For `C/C(=N\NC(=O)CNC(=O)c1ccc2c(c1)OCCO2)c1ccco1`, the “hERG current change (%, negative = inhibition) at 10uM” value was 10.7%. For `CCN(C(=O)COC(=O)c1ccc(S(=O)(=O)N2CCCc3ccccc32)cc1)C1CCS(=O)(=O)C1` (stereo not shown), the “hERG current change (%, negative = inhibition) at 10uM” value was 3.57%. For `COc1cc(/C=C2\SC(=Nc3cccnc3)NC2=O)cc(OC)c1OC`, the “hERG current change (%, negative = inhibition) at 10uM” value was 8.51%. For `COc1ccccc1CNC(=S)NC1CCCC1`, the “hERG current change (%, negative = inhibition) at 10uM” value was 7.26%. With `COc1cccc(NC(=O)CSc2nnc(-c3cccnc3)o2)c1` the “hERG current change (%, negative = inhibition) at 10uM” value was 1.95%. `Cc1ccc(C)c(-c2nnc(NC(=O)CCS(=O)(=O)c3ccc(F)cc3)o2)c1` was tested, and the “hERG current change (%, negative = inhibition) at 10uM” value was -12.4%. For `CCCC1(C(=O)O)NC(c2ccccc2O)C2C(=O)N(c3cccc(Cl)c3)C(=O)C21` (stereo not shown), the “hERG current change (%, negative = inhibition) at 10uM” value was 6.52%. In the case of `COc1cccc(C2c3c(oc4ccc(F)cc4c3=O)C(=O)N2CCN2CCOCC2)c1OC` (stereo not shown), the “hERG current change (%, negative = inhibition) at 10uM” value is reported as 4.45%. In the case of `Cc1ccsc1C(=O)N[C@@H](C)c1nnc2ccccn12`, the “hERG current change (%, negative = inhibition) at 10uM” value is reported as 4.09%. For `Cc1ccccc1/C=N/NC(=O)Cn1nnc(N)n1`, the “hERG current change (%, negative = inhibition) at 10uM” value was -7.01%. `CCS(=O)(=O)c1nnnn1-c1ccccc1S(C)(=O)=O` was tested, and the “hERG current change (%, negative = inhibition) at 10uM” value was 12.3%. For `COc1cccc(C2CC(=O)Nc3cc4c(cc32)CCC4)c1` (stereo not shown), the “hERG current change (%, negative = inhibition) at 10uM” value was -6.57%. `CN(C)CCOc1ccccc1-c1ccccc1.O=C(O)C(=O)O` was tested, and the “hERG current change (%, negative = inhibition) at 10uM” value was -4.52%. In the case of `Cc1cccc(C(=O)NC(=S)NCc2ccccc2)c1`, the “hERG current change (%, negative = inhibition) at 10uM” value is reported as 8.18%. `Cc1ccc(-c2noc(CSc3nnc(Cc4ccccc4)n3-c3ccc(Cl)cc3)n2)cc1` was tested, and the “hERG current change (%, negative = inhibition) at 10uM” value was 27.2%.
